The target in one test is T1, PXR (Homo sapiens) (UniProt O75469).
T1 sequence: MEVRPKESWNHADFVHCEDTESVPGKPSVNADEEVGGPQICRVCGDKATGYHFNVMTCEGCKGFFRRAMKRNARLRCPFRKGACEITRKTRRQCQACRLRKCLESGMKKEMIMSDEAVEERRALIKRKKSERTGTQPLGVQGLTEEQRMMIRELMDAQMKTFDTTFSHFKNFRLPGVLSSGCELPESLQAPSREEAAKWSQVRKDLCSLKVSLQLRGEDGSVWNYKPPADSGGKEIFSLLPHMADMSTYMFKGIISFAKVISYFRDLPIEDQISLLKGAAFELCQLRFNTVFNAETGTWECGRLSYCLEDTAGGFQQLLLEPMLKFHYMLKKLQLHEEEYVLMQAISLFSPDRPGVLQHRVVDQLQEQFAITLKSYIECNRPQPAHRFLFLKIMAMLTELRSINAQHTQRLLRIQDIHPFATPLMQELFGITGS
As to conditions: 270 nM, no RXRa, PBS pH 7.4, 2% milk, 0.02% Triton X-100, 1 mM DTT, BSA, 0.4 mg/ml salmon testes DNA; double strand, one strand shown.

The target in another test is T2, RARb (Homo sapiens) (UniProt P10826).
T2 sequence: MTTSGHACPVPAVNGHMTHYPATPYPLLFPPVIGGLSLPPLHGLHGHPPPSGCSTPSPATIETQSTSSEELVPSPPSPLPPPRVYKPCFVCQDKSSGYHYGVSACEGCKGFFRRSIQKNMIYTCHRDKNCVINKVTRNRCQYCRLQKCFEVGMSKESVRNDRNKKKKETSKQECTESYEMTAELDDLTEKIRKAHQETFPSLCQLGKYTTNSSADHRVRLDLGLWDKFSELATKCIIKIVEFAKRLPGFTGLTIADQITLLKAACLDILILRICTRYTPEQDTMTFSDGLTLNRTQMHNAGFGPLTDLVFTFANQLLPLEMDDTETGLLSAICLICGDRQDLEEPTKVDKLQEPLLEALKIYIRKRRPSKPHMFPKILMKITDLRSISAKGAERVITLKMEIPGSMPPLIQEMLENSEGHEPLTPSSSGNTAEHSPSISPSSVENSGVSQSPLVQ
As to conditions: 270 nM, no RXRa, PBS pH 7.4, 2% milk, 0.02% Triton X-100, 1 mM DTT, BSA, 0.4 mg/ml salmon testes DNA; double strand, one strand shown.

The next test has as its target T3, RARg (Homo sapiens) (UniProt P13631).
T3 sequence: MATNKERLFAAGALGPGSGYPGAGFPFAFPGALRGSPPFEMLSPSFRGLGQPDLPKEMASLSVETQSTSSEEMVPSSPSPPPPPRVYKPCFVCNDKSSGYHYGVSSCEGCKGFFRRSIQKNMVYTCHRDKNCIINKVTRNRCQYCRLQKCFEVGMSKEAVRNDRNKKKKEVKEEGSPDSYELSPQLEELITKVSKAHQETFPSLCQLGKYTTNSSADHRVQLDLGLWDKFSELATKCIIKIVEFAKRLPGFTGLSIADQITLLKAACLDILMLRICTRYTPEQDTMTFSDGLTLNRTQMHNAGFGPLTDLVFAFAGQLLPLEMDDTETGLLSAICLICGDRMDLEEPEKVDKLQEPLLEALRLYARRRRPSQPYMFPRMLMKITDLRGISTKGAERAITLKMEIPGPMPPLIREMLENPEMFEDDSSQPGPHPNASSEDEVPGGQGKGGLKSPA
As to conditions: 270 nM, no RXRa, PBS pH 7.4, 2% milk, 0.02% Triton X-100, 1 mM DTT, BSA, 0.4 mg/ml salmon testes DNA; double strand, one strand shown.

A further test addresses T4, THRa (Homo sapiens) (UniProt P10827).
T4 sequence: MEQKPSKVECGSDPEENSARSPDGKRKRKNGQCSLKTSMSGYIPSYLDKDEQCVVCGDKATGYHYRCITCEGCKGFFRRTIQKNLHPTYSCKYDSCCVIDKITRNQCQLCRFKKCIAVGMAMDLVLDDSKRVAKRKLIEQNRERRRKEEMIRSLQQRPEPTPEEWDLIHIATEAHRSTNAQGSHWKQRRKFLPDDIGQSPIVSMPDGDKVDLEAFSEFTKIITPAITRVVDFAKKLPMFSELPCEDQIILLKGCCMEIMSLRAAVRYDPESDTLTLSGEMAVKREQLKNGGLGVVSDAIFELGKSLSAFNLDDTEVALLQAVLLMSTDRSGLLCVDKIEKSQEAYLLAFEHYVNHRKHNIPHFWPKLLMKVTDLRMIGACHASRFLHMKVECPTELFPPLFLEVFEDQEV
The conditions noted are these: 90 nM, no RXRa, PBS pH 7.4, 2% milk, 0.02% Triton X-100, 1 mM DTT, BSA, 0.4 mg/ml salmon testes DNA; double strand, one strand shown.

In another test the target is T5, RARa (Homo sapiens) (UniProt P10276).
T5 sequence: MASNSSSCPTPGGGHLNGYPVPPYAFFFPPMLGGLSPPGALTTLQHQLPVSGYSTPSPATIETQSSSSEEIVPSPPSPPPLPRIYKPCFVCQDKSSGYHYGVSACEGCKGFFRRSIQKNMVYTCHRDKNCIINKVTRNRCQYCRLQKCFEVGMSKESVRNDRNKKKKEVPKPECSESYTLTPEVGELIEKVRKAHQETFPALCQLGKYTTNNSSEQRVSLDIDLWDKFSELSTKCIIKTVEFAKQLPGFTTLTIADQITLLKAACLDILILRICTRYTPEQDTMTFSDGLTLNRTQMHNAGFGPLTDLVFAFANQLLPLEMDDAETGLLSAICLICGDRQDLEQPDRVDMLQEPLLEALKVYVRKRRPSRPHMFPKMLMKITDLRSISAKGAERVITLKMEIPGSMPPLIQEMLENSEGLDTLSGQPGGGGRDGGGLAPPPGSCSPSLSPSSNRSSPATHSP
The conditions noted are these: 270 nM, no RXRa, PBS pH 7.4, 2% milk, 0.02% Triton X-100, 1 mM DTT, BSA, 0.4 mg/ml salmon testes DNA; double strand, one strand shown.

The target in another test is T6, VDR (Homo sapiens) (UniProt P11473).
T6 sequence: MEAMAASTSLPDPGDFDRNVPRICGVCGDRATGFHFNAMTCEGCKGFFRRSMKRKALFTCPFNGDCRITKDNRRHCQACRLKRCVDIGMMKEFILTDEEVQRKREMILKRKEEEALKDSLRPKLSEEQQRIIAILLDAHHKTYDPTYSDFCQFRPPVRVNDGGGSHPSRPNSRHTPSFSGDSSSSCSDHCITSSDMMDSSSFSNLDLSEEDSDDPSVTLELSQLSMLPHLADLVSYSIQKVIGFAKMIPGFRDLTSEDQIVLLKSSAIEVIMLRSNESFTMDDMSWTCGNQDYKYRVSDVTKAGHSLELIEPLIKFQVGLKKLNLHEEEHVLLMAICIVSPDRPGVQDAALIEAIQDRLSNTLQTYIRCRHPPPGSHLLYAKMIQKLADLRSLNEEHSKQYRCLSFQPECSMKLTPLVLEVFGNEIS
The conditions noted are these: 270 nM, no RXRa, PBS pH 7.4, 2% milk, 0.02% Triton X-100, 1 mM DTT, BSA, 0.4 mg/ml salmon testes DNA; double strand, one strand shown.

The next test deals with PPARg (Homo sapiens) (UniProt P37231). The conditions noted are these: 180 nM, no RXRa, PBS pH 7.4, 2% milk, 0.02% Triton X-100, 1 mM DTT, BSA, 0.4 mg/ml salmon testes DNA; double strand, one strand shown.

The other results are listed elsewhere or left out.

Chain of UniProt P37231 (P37231 29-505): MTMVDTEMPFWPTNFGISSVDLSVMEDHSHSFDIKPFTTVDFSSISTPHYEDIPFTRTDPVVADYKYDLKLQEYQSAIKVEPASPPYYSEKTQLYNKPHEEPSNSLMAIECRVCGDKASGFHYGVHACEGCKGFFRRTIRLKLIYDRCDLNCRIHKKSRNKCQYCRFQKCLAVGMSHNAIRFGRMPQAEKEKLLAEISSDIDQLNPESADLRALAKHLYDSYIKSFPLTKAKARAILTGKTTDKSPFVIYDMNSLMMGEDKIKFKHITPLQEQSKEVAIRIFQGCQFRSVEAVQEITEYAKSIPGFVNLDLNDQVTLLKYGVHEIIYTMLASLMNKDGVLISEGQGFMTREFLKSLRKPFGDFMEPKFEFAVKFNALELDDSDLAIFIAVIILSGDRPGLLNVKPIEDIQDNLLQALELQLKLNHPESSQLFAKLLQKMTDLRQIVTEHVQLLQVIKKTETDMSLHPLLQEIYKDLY

As to “GCTGGCAATGGCTGGACCACTCCAAGAACTGTGTGGGCGATTGACAGCGTAGAATGAAGG”, the values for the binding signal (PBM z-score against 500 random probes) with PXR (Homo sapiens) and with RARb (Homo sapiens) were -0.99 and -0.64, respectively.

“GCAACAGGCAGCTGGCTGTGCACGGCAACCATGGGCGCGATTGACAGCGTAGAATGAAGG”: the binding signal (PBM z-score against 500 random probes) in the test with RARb (Homo sapiens) was -1.73.

In the test with RARg (Homo sapiens), “GCGTGCGAGGGAAGGAGCATGCTTCATTGATCCCATGCGATTGACAGCGTAGAATGAAGG” came in with a binding signal (PBM z-score against 500 random probes) of -0.58.

In turn, “GCTCCCTGCCCAGTTCTGTGCAGGGTGTGCGTGTCTGCGATTGACAGCGTAGAATGAAGG” showed a binding signal (PBM z-score against 500 random probes) with RARg (Homo sapiens) of -2.17.

“GCCTGTGGAATCCAACATGCCAAATGCTTGCTTGAGGCGATTGACAGCGTAGAATGAAGG” came in with a binding signal (PBM z-score against 500 random probes) with PXR (Homo sapiens) of -0.58.

In the test with PXR (Homo sapiens), “GCCAATGCCAGCTACCAGGAGGCTGAGGTGTGAGAGGCGATTGACAGCGTAGAATGAAGG” returned a binding signal (PBM z-score against 500 random probes) of -0.47.

Sequence “GCCAAAGACAGCTTTGCAAGGCCACTTCTGTTTGCTGCGATTGACAGCGTAGAATGAAGG” returned a binding signal (PBM z-score against 500 random probes) with RARb (Homo sapiens) of -0.15.

As for “GCCAAGAATCAGACTCTTAAGTAGATGCCTGTAGCTGCGATTGACAGCGTAGAATGAAGG”, the binding signal (PBM z-score against 500 random probes) with RARg (Homo sapiens) was 0.12.

For the sequence “GCTGCAGAGAGGCCACCAGCCAGCCCAGACCCATGCGCGATTGACAGCGTAGAATGAAGG”, the binding signal (PBM z-score against 500 random probes) with PXR (Homo sapiens) was -0.81; with THRa (Homo sapiens), -0.14.

“GCGGAGGCTGAGGCAGGAGAATCGCTTGAACCTGGGGCGATTGACAGCGTAGAATGAAGG” gave a binding signal (PBM z-score against 500 random probes) in the test with RARa (Homo sapiens) of -0.98.

In the test with PXR (Homo sapiens), “GCGGGAGGGCACAGTAAGCACACTGAGCCCTTCCGGGCGATTGACAGCGTAGAATGAAGG” showed a binding signal (PBM z-score against 500 random probes) of 0.13.

Consider “GCGCCTCCTTCTTTCCTTTGTCATCTGGTGGTGGGAGCGATTGACAGCGTAGAATGAAGG”, for which the binding signal (PBM z-score against 500 random probes) in the test with RARa (Homo sapiens) turned out to be 0.14.

For the sequence “GCCAGTGATGCACACCTGTAACCCTAGCACTTTGGGGCGATTGACAGCGTAGAATGAAGG”, the binding signal (PBM z-score against 500 random probes) with PXR (Homo sapiens) is -0.32.

As to “GCGACTCAGACACTGCTGGCACCCGACACTGCTCTCGCGATTGACAGCGTAGAATGAAGG”, the binding signal (PBM z-score against 500 random probes) with PXR (Homo sapiens) was -0.03; in the test with RARb (Homo sapiens), -0.21; in the test with VDR (Homo sapiens), -0.32.

In the test with PXR (Homo sapiens), “GCCACATGAAAGCTGACAACAGAAGCACTCCAACACGCGATTGACAGCGTAGAATGAAGG” returned a binding signal (PBM z-score against 500 random probes) of 0.49.

For “GCGCAGGGACTATGTGCATTAGGCCAGTTCCTCATGGCGATTGACAGCGTAGAATGAAGG”, the binding signal (PBM z-score against 500 random probes) with RARa (Homo sapiens) was -1.32.

In the case of “GCGCCTTGTCCTTCTGCAGCTGCTGGTGCAGCCCAGGCGATTGACAGCGTAGAATGAAGG”, the binding signal (PBM z-score against 500 random probes) was -1.34 with PXR (Homo sapiens), -2.04 in the test with RARa (Homo sapiens), -0.65 with RARg (Homo sapiens) and 0.05 with THRa (Homo sapiens).

As to “GCGTGTTCTACTGTACTGCAGCTGAGCCGACACTCAGCGATTGACAGCGTAGAATGAAGG”, in the test with RARa (Homo sapiens), the binding signal (PBM z-score against 500 random probes) was -0.16.

Regarding “GCCACACTTGCAGAGGAGAAAGGAGTTTGGAAAGCCGCGATTGACAGCGTAGAATGAAGG”, the binding signal (PBM z-score against 500 random probes) amounted to 0.32 in the test with PPARg (Homo sapiens) and 0.05 with RARa (Homo sapiens).

On to “GCAAAGGCCTGAGAACCAGGACCTCCAGTGTCCTCAGCGATTGACAGCGTAGAATGAAGG”, for which the binding signal (PBM z-score against 500 random probes) with RARa (Homo sapiens) was -1.48.

The sequence “GCCTCTTTGCCTGCTGCCATCCATGTAAGATGTGAGGCGATTGACAGCGTAGAATGAAGG” yielded a binding signal (PBM z-score against 500 random probes) in the test with RARa (Homo sapiens) of 0.5.

On to “GCCATGTCACCTCCCTGAGGTGCAGTTTGCTTCAAGGCGATTGACAGCGTAGAATGAAGG”, for which the binding signal (PBM z-score against 500 random probes) in the test with PXR (Homo sapiens) and with RARa (Homo sapiens) was -0.62 in each case.

In the test with PXR (Homo sapiens), “GCACAGAAATGAAATGGGCTATAGAGCTCATCTTCTGCGATTGACAGCGTAGAATGAAGG” came in with a binding signal (PBM z-score against 500 random probes) of -0.36.

Regarding “GCAGCTCCACTTCATGCCAGGCCTGGGCTAGAGGCTGCGATTGACAGCGTAGAATGAAGG”, the binding signal (PBM z-score against 500 random probes) with PXR (Homo sapiens) was -0.72.

The sequence “GCCAGTACTGTTGCTAGAACTACAACCTGTATGCTGGCGATTGACAGCGTAGAATGAAGG” displayed a binding signal (PBM z-score against 500 random probes) in the test with PXR (Homo sapiens) of -0.67.

In the test with RARa (Homo sapiens), “GCGCCTCAGTCATGAGTCACATGAAAGTGACTCACCGCGATTGACAGCGTAGAATGAAGG” returned a binding signal (PBM z-score against 500 random probes) of -0.91.

The record behind these values is article PMC6555819.
